# Data reported in patent US20250129083A1, “IMIDAZOTETRAZINE COMPOUNDS AND TREATMENT OF TMZ-RESISTANT CANCERS” (THE BOARD OF TRUSTEES OF THE UNIVERSITY OF ILLINOIS, priority 2022, published 2025).
# System: linearized pBR322 plasmid DNA
# Settings: purified linearized DNA, 15 hours at 37° C.
compound,measurement,value
"C#CCn1nnc2c(Cl)ncn2c1=O [CPZ, 8-chloro-3-(prop-2-yn-1-yl)imidazo[5,1-d][1,2,3,5]tetrazin-4(3H)-one]",DNA alkylation (streaking on gel),clear evidence of both DNA cross-linking and alkylation
same,DNA interstrand cross-linking,clear evidence of both DNA cross-linking and alkylation
